Experimental data as given in PMC4336329 (PLoS ONE, 2015).
In all, about 310,000 compounds went through this assay and about 14,000 (4.5%) showed an effect of 50% or more. Effects have a minus sign here. The list shows a part of the results.

Target: human ether-à-go-go-related gene (hERG) potassium channel (human, UniProt Q12809)
Assay: primary screen, population patch clamp on CHO cells stably expressing hERG
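Note: peak tail current of the secondary pulse compared with the same well before compound.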

Chain of human ether-à-go-go-related gene (hERG) potassium channel (Q12809 whole entry, looked up): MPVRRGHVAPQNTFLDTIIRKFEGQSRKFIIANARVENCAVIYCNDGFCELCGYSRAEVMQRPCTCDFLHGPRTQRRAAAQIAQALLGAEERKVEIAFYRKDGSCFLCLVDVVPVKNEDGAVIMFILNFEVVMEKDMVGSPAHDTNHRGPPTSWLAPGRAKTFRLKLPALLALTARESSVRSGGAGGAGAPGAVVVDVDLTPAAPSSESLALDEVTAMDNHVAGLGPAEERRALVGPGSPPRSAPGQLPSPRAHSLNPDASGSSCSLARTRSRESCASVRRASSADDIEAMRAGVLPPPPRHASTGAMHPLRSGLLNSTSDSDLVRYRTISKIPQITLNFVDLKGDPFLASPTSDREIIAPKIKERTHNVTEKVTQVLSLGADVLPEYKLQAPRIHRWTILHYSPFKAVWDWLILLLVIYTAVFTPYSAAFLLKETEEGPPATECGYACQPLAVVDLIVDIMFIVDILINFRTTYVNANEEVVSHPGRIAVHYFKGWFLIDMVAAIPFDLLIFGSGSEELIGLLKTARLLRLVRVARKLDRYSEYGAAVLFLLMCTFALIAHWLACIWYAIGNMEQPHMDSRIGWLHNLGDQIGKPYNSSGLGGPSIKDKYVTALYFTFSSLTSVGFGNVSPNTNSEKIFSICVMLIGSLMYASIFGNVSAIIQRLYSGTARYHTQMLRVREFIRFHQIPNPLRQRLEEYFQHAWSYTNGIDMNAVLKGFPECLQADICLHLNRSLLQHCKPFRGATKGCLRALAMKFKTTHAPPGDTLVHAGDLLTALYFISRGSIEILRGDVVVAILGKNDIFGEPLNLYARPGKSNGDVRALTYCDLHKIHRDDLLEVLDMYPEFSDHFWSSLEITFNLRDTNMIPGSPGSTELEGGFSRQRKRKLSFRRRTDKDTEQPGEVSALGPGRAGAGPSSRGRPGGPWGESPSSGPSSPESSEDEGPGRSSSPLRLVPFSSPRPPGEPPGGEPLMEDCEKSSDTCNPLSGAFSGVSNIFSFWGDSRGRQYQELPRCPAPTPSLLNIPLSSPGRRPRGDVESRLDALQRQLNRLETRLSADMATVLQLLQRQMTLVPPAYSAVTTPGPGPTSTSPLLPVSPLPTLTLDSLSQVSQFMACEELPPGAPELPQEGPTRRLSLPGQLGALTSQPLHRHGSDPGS

Point of comparison: `O=C(c1ccc(Br)s1)N1CCN(c2ccccn2)CC1`, “hERG current change (%, negative = inhibition) at 10uM” value 3.23%. Against it:
- CS(=O)(=O)N(Cc1ccccc1)c1ccc(C(=O)N2CCOCC2)cc1 — lower, -8.27%
- CCOC(=O)C1(Cc2ccccc2)CCCN(Cc2ccc(OCC)c(CO)c2)C1 (centres unmarked) — lower, -52.3%
- CCCCC(=O)Nc1ncc2c(n1)CC(C)(C)CC2=O — lower, -5.63%
- Cc1ccc(NC(=O)/C(Cl)=C\c2ccccc2)cc1 — lower, -3.3%
- O=C(COc1ccc([N+](=O)[O-])cc1)Nc1cccnc1 — lower, -47.2%
- COc1ccc(CNc2ccc(-c3ccc(OC)cc3)nn2)cc1 — lower, 0.778%
- CCN(CC)CCNC(=O)COc1ccc(OC)cc1.Cl — lower, -9.07%
- O=C(NCc1ccccc1)c1nc2c(nnn2Cc2cccc(Cl)c2)c(=O)[nH]1 — lower, -1.08%
- CCN(CC)c1ncn(Cc2c(Cl)cccc2Cl)c2ncnc1-2 — lower, -21.2%
- O=C(c1ccc(Cl)cc1Cl)N1CCN(c2ccccn2)CC1 — lower, -2.49%
- CCC(C)Sc1nc2c(c(=O)[nH]c(=O)n2C)n1CC(O)COc1ccccc1C (centres unmarked) — lower, -0.743%
- O=C(CCNC(=O)c1ccc(Br)cc1)NCc1ccccc1F — lower, -13%
- COc1ccccc1CNC(=O)C1CCN(S(C)(=O)=O)CC1 — lower, -12%
- O=C(Nc1nnc(N2CCCCCC2)s1)c1cc(-c2ccc(Br)cc2)on1 — higher, 12.2%
- NS(=O)(=O)c1ccc(CCNC(=O)c2cccc([N+](=O)[O-])c2)cc1 — higher, 11.2%
- Cn1c(=O)[nH]c(=O)c2c1nc(NCCCn1ccnc1)n2Cc1ccccc1 — lower, 2.75%
- S=C(NCCSCc1c(Cl)cccc1Cl)Nc1ccccc1 — lower, -3.31%
- CCCOc1ccc(S(=O)(=O)N2CCN(C)CC2)c2ccccc12 — lower, -27.8%
- CCC(Sc1nc2cc3c(cc2c(=O)n1Cc1ccco1)OCO3)C(=O)NCCOC (centres unmarked) — lower, -63.6%
- O=C(NCc1cccnc1)Nc1ccc2c(c1)OCO2 — lower, -7.04%
- CCOc1ccc(NC(=O)C2CC3CCC2C3)cc1 (centres unmarked) — higher, 16.8%
- COc1ccccc1N1CCN(Cc2ccc(Br)o2)CC1 — lower, 0.167%
- Cc1cccc(/C=N/NC(=O)c2cccc(NC(=O)c3ccccc3)c2)n1 — lower, 0.172%
- CCCCNC(=O)CSc1nc2ccc(C)cc2[nH]1 — higher, 17.6%
- CCOc1c(Br)cc(/C=N\NC(=O)c2ccccc2)cc1OC — higher, 20.8%
- CCn1c(/C=C/N(C)c2ccccc2)[n+](CC)c2ccc(Cl)cc21.[I-] — lower, -16%
- O=C(O)CSc1nnc(-c2ccc(S(=O)(=O)N3CCCC3)cc2)n1Cc1ccco1 — higher, 7.69%
- CC1(C)CC(NC(=O)CSc2ccccc2)CC(C)(C)N1 — higher, 11.3%
- CCCCN(C(=O)c1ccc(OC(F)(F)F)cc1)c1c(N)n(CCC)c(=O)[nH]c1=O — higher, 28%
- Cc1ccc(C(=O)Oc2ccc(/C=N/NC(N)=O)cc2)cc1 — higher, 25%
- CCCNC(=O)C1CC(c2ccccc2C(F)(F)F)=NO1 (centres unmarked) — higher, 18%
- O=C(CCNC(=O)c1ccc(Br)cc1)Nc1ccccc1N1CCOCC1 — lower, -9.58%
- Cc1ccc(C2c3[nH]c4ccccc4c3C[C@H]3C(=O)N(c4ccccc4C(=O)N4CCC(C(=O)O)CC4)C(=O)N23)cc1 (some centres unmarked) — lower, -0.711%
- COc1ccc2cc(CCNS(=O)(=O)c3c(C)cc(C)cc3C)c(=O)[nH]c2c1 — higher, 4.3%
- COCCCNC(=O)CCN1C(=O)COc2ccccc21 — higher, 10%
- Cc1cc(-c2nnc(SCC(=O)Nc3cccc(C)c3C)n2N)n[nH]1 — lower, -1.05%
- Cc1ccc(S(=O)(=O)NCC(=O)OCC(=O)Nc2ccccc2OC(F)F)cc1 — lower, -0.342%
- O=C(c1ccc(Cl)c(Cl)c1)N1CCCC1 — higher, 12.9%
- COc1ccc(NC(=O)COC(=O)C2CC(=O)N(c3ccc(C)cc3)C2)cc1 (centres unmarked) — lower, 2.68%
- CN(C)c1cccc(C(=O)OCC(=O)N(C)c2ccccc2)c1 — higher, 8.46%
- Cc1cc(C)cc(OCC(=O)NNC(=O)c2cc(C)[nH]n2)c1 — higher, 13.9%
- Cc1nnc(NC(=O)c2csc3c2CCC(C)C3)s1 (centres unmarked) — higher, 13.9%
- Cc1ccc(C(=O)NCCc2nnc3ccc(SCC(=O)Nc4c(C)cc(C)cc4C)nn23)cc1 — lower, -15.8%
- C=C(C)c1cccc(C(C)(C)NC(=O)Nc2ccccc2OCC)c1 — higher, 19.1%
- CCn1c(CNS(=O)(=O)c2ccc(Br)cc2)n[nH]c1=S — higher, 14.6%
- Cc1c(C(=O)NNC(=S)NCc2ccc(Cl)cc2)oc2ccccc12 — higher, 14.5%
- COc1ccccc1CNc1ncnc2nc[nH]c12 — lower, 0.516%
- Cn1cccc1C(=O)NC(=O)COC(=O)CNC(=O)CNC(=O)c1ccc(Cl)cc1Cl — higher, 9.93%
- O=C1OC(c2ccc(Br)cc2)=N/C1=C\c1ccco1 — higher, 26.3%
- COc1ccc(C(=O)/C(=C/c2cccs2)c2nc3ccccc3o2)cc1 — lower, -2.22%
- COc1ccc(CNC(=O)CC23CC4CC(CC(C4)C2)C3)cc1OC — lower, -1.44%
- CC1Cc2nc(SCC(=O)N3CCN(c4ccccc4)CC3)n(C)c(=O)c2S1 (centres unmarked) — lower, -26.4%
- O=C(CSc1nnc(CNC(=O)C23CC4CC(CC(C4)C2)C3)n1-c1ccc(F)cc1)Nc1ccc(F)cc1 — lower, -8.25%
- O=C(C1CC1)N1CCN(c2ccnc3cc(Cl)ccc23)CC1 — lower, -73.6%
- Cc1cc(C)cc(OCC(=O)N/N=C/c2ccc([N+](=O)[O-])o2)c1 — lower, -15.4%
- CC(C)C(=O)N(c1cc2sc(=O)oc2c2ccccc12)S(=O)(=O)c1cccs1 — higher, 9.49%
- O=C(Nc1cccc(Cl)c1)c1cnccn1 — higher, 8.67%
- COCCNC(=O)CCc1c(C)nc2nc(-c3cc(OC)cc(OC)c3)nn2c1C — lower, -1.73%
- CCN(CC)S(=O)(=O)c1ccc(N2CCOCC2)c(NC(=O)c2ccc(NC(C)=O)cc2)c1 — lower, -0.15%
- COc1ccc(NC(=O)Nc2cccc3ccccc23)cc1S(N)(=O)=O — higher, 16%
- Cc1ccc(C2CN(c3ccccc3)CC2C(=O)c2ccc(F)cc2)cc1 (centres unmarked) — lower, -17%
- C=Cn1c(C(=O)O)ccc1-c1ccc(CC)cc1 — lower, -5.29%
- CCOC(=O)c1c(C)c(-c2ccccc2)n(CC(=O)N2CCCC2)c1C — lower, -12.2%
- CC(=O)N(/N=C1\Sc2ccccc2C1=O)c1cccc(C)c1 — lower, -14.1%
- O=C(CN(CCc1ccccc1)S(=O)(=O)c1ccc(Br)cc1)N/N=C/c1ccc2c(c1)OCO2 — lower, 3.05%
- Cc1ccc(CSc2nc3c(c(SCC(=O)O)n2)CCCC3)cc1 — lower, 2.76%
- COc1ccc(NC(=O)Nc2ccccc2C)c(OC)c1 — higher, 22.1%
- CCSc1nc2c(c(-c3ccc(C)o3)c1C#N)CCCC2 — lower, -6.11%
- CC(=O)[N-]S(=O)(=O)c1ccc(N)cc1.O.[Na+] — higher, 16.9%
- CC12C=CC(=O)C=C1CCC1C2C(=O)C[C@@]2(C)C1CCC2(O)C(=O)CO (some centres unmarked) — higher, 25.3%
- CCOC(=O)c1oc2ccc(Br)cc2c1NC(=O)CN1CCN(C)CC1 — lower, -65.8%
- O=CN/N=C/c1c(O)ccc2ccccc12 — higher, 8.94%
- Cc1ccc(C(=O)COC(=O)c2cc(Cl)nc3ccccc23)cc1C — higher, 5.82%
- Cc1nc(N2CCCCC2)sc1C(=O)c1ccc(SCCO)c([N+](=O)[O-])c1 — lower, -28.4%
- COc1ccc(/C=C2\SC(=S)N(Cc3cccnc3)C2=O)cc1C — lower, -3.04%
- CC(C(=O)OCc1nnc(-c2ccccc2)o1)N1C(=O)C2CCCCC2C1=O (centres unmarked) — higher, 9.77%
- Cc1c(NC(=S)NC(NC(=O)CC(C)C)C(Cl)(Cl)Cl)c(=O)n(-c2ccccc2)n1C (centres unmarked) — higher, 9.77%
- Cc1nnn(C23CC4CC(CC(CC(=O)Nc5ccc(C)c(Cl)c5)(C4)C2)C3)n1 — lower, -3.04%
- Cc1ccc(OCC(=O)Nc2ccc(NC(=O)c3cccs3)cc2)c(C)c1 — higher, 18.6%
- Cc1ccc(S(=O)(=O)N/N=c2\oc3ccccc3cc2C(=O)Nc2cccc(C)c2)cc1 — lower, -68.1%
- O=C(Nc1ccc(S(=O)(=O)Nc2nccs2)cc1)c1c(F)c(F)c(F)c(F)c1F — lower, -7.41%
- Cc1ccc(F)cc1NC(=S)NCCc1ccccc1 — higher, 10.4%
- COc1ccc(S(=O)(=O)NCc2ccccn2)cc1NC(=O)c1ccccc1F — higher, 13.3%
- CCOC(=O)COc1cccc2c(=O)n(CC(=O)NCc3ccc4c(c3)OCO4)ccc12 — higher, 10.4%
- CN(Cc1ccccc1)C(=O)COc1ccc(Br)cc1Cl — lower, -28.1%
- Cc1ccccc1NC(=O)/C(C#N)=C/c1ccc[nH]1 — higher, 21.2%
- CC1=NNC(=O)C1CCC(=O)N/N=C\c1cccc(Cl)c1 (centres unmarked) — higher, 17.9%
- CS(=O)(=O)Nc1ccc(S(=O)(=O)NC2CCCCC2)cc1 — lower, -5.38%
